Data on eleven molecules can be found in the antibiotic and cytotoxicity screens of Wong et al. (2023).

Molecules are shown by their SMILES. This is one part of the list.

The test has as its system HepG2. The experiment in a line: cytotoxicity call (relative viability < 0.9). The note with it: 10 µM.
As for `C[C@@H]1CN([C@H](C)CO)C(=O)c2c(c3ccccc3n2C)-c2ccccc2CO[C@@H]1CN(C)Cc1ccc2c(c1)OCO2`, the cytotoxicity call was “inactive”. In the case of `C[C@H](CO)N1C[C@H](C)[C@@H](CN(C)Cc2ccc(C(=O)O)cc2)Oc2ccc(NC(=O)CCN3CCOCC3)cc2CC1=O` it was “inactive”; in that of `NC[C@H]1OB(O)c2c(OCCO)ccc(Cl)c21`, “inactive”. In the case of `C[C@H](CO)N1C[C@H](C)[C@H](CN(C)S(=O)(=O)c2cccs2)Oc2ccc(NS(=O)(=O)c3cccs3)cc2C1=O` it was “inactive”; in that of `Cc1noc(C)c1NC(=O)N(C)C[C@@H]1OCCCC[C@@H](C)Oc2ccc(NS(=O)(=O)c3cccs3)cc2C(=O)N([C@@H](C)CO)C[C@H]1C`, “inactive”. In the case of `CC(C)(C)[S@@](=O)N1Cc2cc(C(=O)N[C@H]3CCN(Cc4ccccc4)C3)nc(-c3cccc(-c4ccncc4)c3)c2[C@H]1CCO` it was “inactive”; in that of `C[C@@H]1CN([C@@H](C)CO)C(=O)Cc2cc(NC(=O)Nc3ccc(F)cc3)ccc2O[C@H]1CN(C)Cc1ccc(-c2ccccc2)cc1`, “active”; in that of `NCc1ccc(Br)s1`, “inactive”.

For the molecule `C[C@H](CO)N1C[C@H](C)[C@@H](CN(C)Cc2ccc(-c3ccccc3)cc2)Oc2ccc(NC(=O)Cn3cnnn3)cc2CC1=O`, the cytotoxicity call is “inactive”. In the case of `C[C@@H]1CN([C@@H](C)CO)C(=O)Cc2cc(NC(=O)Nc3ccc(C(F)(F)F)cc3)ccc2O[C@@H]1CN(C)Cc1ccc(C(=O)Nc2ccccc2N)cc1` it was “active”; in that of `COCC#Cc1ccc2c(c1)O[C@H](CN(C)C(=O)COC)[C@@H](C)CN([C@@H](C)CO)S2(=O)=O`, “inactive”.
